# Assay results as given in PubChem BioAssay AID504845 (National Center for Advancing Translational Sciences (NCATS), 2011).
# “And” between values parts separate entries of the source, which are not always exact repeats. Equal entries are not always repeated. About 150 (0.038%) of roughly 390,000 compounds were called active. The shares of active, inactive and inconclusive entries below differ from those in the screen. The call rests on the fitted dose curve; in most records, active means well fitted inhibition curve with a large enough effect; inconclusive means small, poorly fitted or top-dose-only effect; inactive means no such curve, though single readings can be large or run the other way. Where the call is inconclusive, the potency comes from a doubtful curve fit.
# Biological target: Regulator of G-protein signaling 4 (Homo sapiens) (UniProt P49798)
# Sequence of UniProt P49798 (P49798 whole entry, looked up): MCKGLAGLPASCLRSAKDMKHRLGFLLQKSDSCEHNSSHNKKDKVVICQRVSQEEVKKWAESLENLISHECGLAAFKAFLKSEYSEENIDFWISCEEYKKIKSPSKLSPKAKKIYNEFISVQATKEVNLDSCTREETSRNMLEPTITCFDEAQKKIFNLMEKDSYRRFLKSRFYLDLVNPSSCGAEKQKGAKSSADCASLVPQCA
# Assay: Inhibitors of Regulator of G Protein Signaling (RGS) 4: qHTS; further: nearly all actives have a fitted effect of over 75% in size
# Conditions: Transcreener GDP fluorescence polarization, RGS4-accelerated GTP hydrolysis; series mostly up to 114 µM; activity change, negative = inhibition: at the top concentration
# Procedure, shortened: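 MLSMR compounds (23 nl, pin-transferred) preincubated 10 min at room temperature with a 500nM (2x) first reagent, then RGS4 at 900nM (2x) plus Transcreener GDP mix added; fluorescence polarization (620/688 nm) read before and after 90 min at 30 °C.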
# On the % scale 0 is the no-effect control and ±100 the full control effect; potency means the concentration at half of the fitted maximal effect; tags describe the fitted curve by direction and shape.
SMILES,"activity change, negative = inhibition",Potency
Nc1ccc(-c2nc3cc(N)ccc3s2)cc1,inactive: -1.88%,
Cc1ccc(NC(=O)CN2CCOCC2)cc1S(=O)(=O)N1CCCCC1,inactive: 3.42%,
CCCCn1c(CCC)nc([N+](=O)[O-])c1Sc1ccc(Cl)cn1,inactive: 2.35%,
CN(C(=O)CSc1nc(N)nn1-c1ccccc1)c1ccccc1,inactive: -13.9%,
COc1ccc(-n2c(Cc3cccn3C)nnc2SCC(=O)Nc2cccc(F)c2)cc1,,"inconclusive: 31.6 µM [inhibitor, full curve, poor fit]"
COc1cc(/C=C(\C#N)C(=O)Nc2cc(C(F)(F)F)ccc2Cl)ccc1OCC(=O)Nc1cccc(C(F)(F)F)c1,inactive: -0.209%,
O=C(Nc1cccc(NC(=O)c2ccc(-c3ccc(Br)cc3)o2)c1)c1ccco1,,"inconclusive: 44.7 µM [inhibitor, partial curve, poor fit]"
COC(=O)c1ccccc1NC1=C/C(=N\S(=O)(=O)c2ccc(C(=O)O)cc2)c2ccccc2C1=O,,"inconclusive: 10 µM [inhibitor, full curve, poor fit]"
Cc1ccccc1NS(=O)(=O)c1ccc(C(=O)NCC(C)(C)N2CCOCC2)cc1,,"inconclusive: 100 µM [inhibitor, single point]"
O=c1cc(O)n(-c2ccccc2F)c(=S)[nH]1,,"inconclusive: 44.7 µM [inhibitor, partial curve, poor fit]"
COc1ccc(-c2cc(-c3ccccc3)nc(SC(C)C(=O)O)c2C#N)cc1 (configuration not stated),,"inconclusive: 79.4 µM [inhibitor, partial curve, poor fit]"
COc1ccccc1N1CCN(Cc2ccc(OC)c(OC)c2OC)CC1,inactive: 14.3%,
COc1ccc(CC(=O)OCCc2cc3cc(OC)c(OC)cc3c(=O)o2)cc1,inactive: 29%,
O=C(N/N=C/c1cc(Br)c(O)c(Br)c1)c1cc2c(ccc3ccccc32)o1,,"inconclusive: 79.4 µM [inhibitor, single point]"
NC1=NC(=O)/C(=C/c2ccc(-c3ccc(S(N)(=O)=O)cc3)o2)S1,,"inconclusive: 44.7 µM [inhibitor, partial curve, poor fit]"
N#CC(C#N)=Cc1ccc(OCC(=O)N2CCOCC2)cc1,,"inconclusive: 20 µM [inhibitor, full curve, poor fit]"
COc1ccc(OC)c(S(=O)(=O)N2Cc3ccccc3CC2C(=O)Nc2ccc(C(C)=O)cc2)c1 (configuration not stated),inactive: -34.5%,
Cn1nc(CC(=O)NC2CCCCCCCCCCC2)c2ccccc2c1=O,,"inconclusive: 79.4 µM [inhibitor, partial curve, poor fit]"
CC(C)(C)c1ccc(-c2n[nH]c(=S)n2/N=C/c2ccncc2)cc1,,"inconclusive: 70.8 µM [inhibitor, partial curve, poor fit]"
CCOCCOC(=O)c1[nH]c2c(c1C)C(=O)CC(c1ccc(N(C)C)cc1)C2 (configuration not stated),inactive: -20.2%,
Oc1ccccc1/C=N/n1c(-c2cccs2)n[nH]c1=S,,"inconclusive: 100 µM [inhibitor, partial curve, poor fit]"
Cc1ccc(-n2sc3ccccc3c2=O)cc1S(=O)(=O)N1CCCCC1,inactive: -107%,
Cc1cc(C(=O)NCC(C)C)c2ccccc2n1,,"inconclusive: 100 µM [inhibitor, single point]"

SMILES,"activity change, negative = inhibition",Potency
COCCn1c(SCC(=O)c2c[nH]c3ccccc23)nnc1-c1ccncc1,inactive: -29.7%,
O=C(N/N=C/c1cccc([N+](=O)[O-])c1)c1cccs1,inactive: -30%,
Cc1ccc(-c2nc3ccc(NS(=O)(=O)c4ccccc4)cc3[nH]2)o1,,"inconclusive: 79.4 µM [inhibitor, partial curve, poor fit]"
COc1ccc(C(=O)/C(=C/c2cccs2)c2nc3ccccc3o2)cc1,,"inconclusive: 44.7 µM [inhibitor, partial curve, poor fit]"
COc1ccc2[nH]c3c(c2c1)CCN1C(=O)C(CC(=O)NCC24CC5CC(CC(C5)C2)C4)C[C@H](C(=O)N2CCOCC2)[C@@]31CCC1CCCC1 (some centres not stated),,"inconclusive: 79.4 µM [inhibitor, single point]"
CC(Sc1ccccc1)C(=O)Nc1ccc(S(=O)(=O)N2CCOCC2)cc1 (configuration not stated),,"inconclusive: 89.1 µM [inhibitor, single point]"
CCn1nc(C(=O)OCC(=O)Nc2nc(-c3ccc(OC)cc3)cs2)c2ccccc2c1=O,inactive: -16% [at 11.4 µM],
CC1CCCCN1C(=O)CSc1nnc(-c2cccc(Cl)c2)o1 (configuration not stated),inactive: -12.7%,
CC(C)c1ccc(C2CC(=O)N3CN(C)CSC3=C2C#N)cc1 (configuration not stated),,"inconclusive: 79.4 µM [inhibitor, partial curve, poor fit]"
Nc1ncnc2c1c(-c1ccc(Oc3ccccc3)cc1)cn2C1CCCC1,,"inconclusive: 7.52 µM [inhibitor, full curve]"
CC(Oc1ccc(-c2ccccc2)c(F)c1)c1ccn(S(=O)(=O)c2ccc(Br)cc2)n1 (configuration not stated),inactive: 8.92%,
CC(=O)Nc1ccc2nc(NC(=O)CS(=O)(=O)c3ccccc3)sc2c1,,"inconclusive: 89.1 µM [inhibitor, single point]"
O=c1c2cccnc2n(-c2ccccc2)n1Cc1ccc(Cl)cc1,,"inconclusive: 89.1 µM [inhibitor, single point]"
Cc1csc2nc(-c3cccc(NC(=O)c4cccc(F)c4)c3)cn12,inactive: -31.6%,
CCOc1ccc(N2C(=O)/C(=C/c3ccc(C)o3)N(C)C2=S)cc1,,"inconclusive: 70.8 µM [inhibitor, partial curve, poor fit]"
COc1ccc(C)cc1N(C)C(=O)c1sc2nc3n(c(=O)c2c1C)CCCCC3,inactive: -53.7%,
O=C(CCl)N1c2ccccc2Oc2ccc3ccccc3c21,,"inconclusive: 35.5 µM [inhibitor, full curve, poor fit]"
C/C(=C\c1ccccc1F)C1Nc2cccc3cccc(c23)N1,,"inconclusive: 100 µM [inhibitor, partial curve, poor fit]"
CN1CCN(CCCN2c3ccccc3Sc3ccc(Cl)cc32)CC1,,"inconclusive: 26.7 µM [inhibitor, partial curve, poor fit]"
Cc1ccc(C(C)C)cc1OCC(=O)NNC(=O)Nc1ccccc1,inactive: 9.27%,
COCCn1nnnc1C(c1ccccc1)N1CCN(C(=O)c2ccco2)CC1 (configuration not stated),,"inconclusive: 89.1 µM [inhibitor, partial curve, poor fit]"
CNS(=O)(=O)c1cccc(C(=O)NCC(c2cccs2)N(C)C)c1 (configuration not stated),inactive: 7.75%,
NC(=O)c1ccc(NC(=O)COC(=O)/C=C/c2ccc(Br)o2)cc1,,"inconclusive: 70.8 µM [inhibitor, partial curve, poor fit]"

SMILES,"activity change, negative = inhibition",Potency
CCC(C(=O)NCCCc1ccccc1)c1ccccc1 (configuration not stated),,"inconclusive: 56.2 µM [inhibitor, partial curve, poor fit]"
CCCOc1ccc(N2C(=O)CC(N3CCN(c4ccc([N+](=O)[O-])cc4)CC3)C2=O)cc1 (configuration not stated),inactive: 15.7%,
COc1cccc(NC(=O)C(=O)NCC(c2cccnc2)N2CCN(c3ccccc3)CC2)c1 (configuration not stated),inactive: 13.1%,
Cc1cc[n+](CC(=O)c2ccccc2)c2ccccc12,inactive: -16.8%,
O=C(C1CCCN(S(=O)(=O)c2cc(Cl)ccc2Cl)C1)N1CCCC1 (configuration not stated),,"inconclusive: 79.4 µM [inhibitor, single point]"
CC(C)(C)c1ccc(OCCC(=O)Nc2cccc(S(=O)(=O)N3CCCCC3)c2)cc1,inactive: 1.85%,
CCOC(=O)c1ccc(Nc2cc(C)nc(N3CCOCC3)n2)cc1,,"inconclusive: 100 µM [inhibitor, single point]"
O=C(Nc1cccc(C(F)(F)F)c1)C(Sc1ncnc2ccccc12)c1ccccc1 (configuration not stated),,"inconclusive: 112 µM [inhibitor, partial curve, poor fit]"
COc1cc(/C=N/NC(=O)CC2(C)OCCCO2)ccc1OCc1ccccc1,,"inconclusive: 56.2 µM [inhibitor, partial curve, poor fit]"
CCN(CC)c1ccc(SS(=O)(=O)O)cc1,,"inconclusive: 79.4 µM [inhibitor, partial curve, poor fit] and inconclusive: 28.2 µM [inhibitor, full curve, poor fit]"
CCCOc1ccc(-c2cccc(NS(=O)(=O)c3cc(OC)ccc3OC)c2)nn1,,"inconclusive: 39.8 µM [inhibitor, partial curve, poor fit]"
CCOc1ccc(C2CC(c3ccccc3C)n3nc(N)nc3N2)cc1 (configuration not stated),,"inconclusive: 50.1 µM [inhibitor, partial curve, poor fit]"
Cc1cc(C(=O)COC(=O)Cc2n[nH]c(=O)c3ccccc23)c(C)n1-c1cccc(C(F)(F)F)c1,inactive: -15.9%,
N#Cc1c(NC(=O)/C=C/c2ccco2)sc2c1CCCC2,,"inconclusive: 79.4 µM [inhibitor, partial curve, poor fit]"
O=C(Nc1ccc(Cl)cc1)C1C2CCCCC21 (configuration not stated),inactive: -13.1%,
NC(=O)Cc1ccc(C(=O)CSc2nnc(-c3ccncc3)n2C2CC2)s1,,"inconclusive: 50.1 µM [inhibitor, partial curve, poor fit]"
COC(=O)[C@H](C)NC(=O)c1cc2c(cn1)[nH]c1ccccc12,,"inconclusive: 39.8 µM [inhibitor, partial curve, poor fit]"
COc1ccc(OC)c(C2CC(=O)N(c3cccc(C)c3)C3=C2C(=O)OC3)c1 (configuration not stated),inactive: -0.875%,
Nc1nc(=S)c2[nH]cnc2[nH]1,,"inconclusive: 50.1 µM [inhibitor, partial curve, poor fit]"
Cc1ccc(NC(=S)N/C(=N/S(=O)(=O)c2ccccc2)c2ccccc2)cc1,,"inconclusive: 79.4 µM [inhibitor, partial curve, poor fit]"
O=[N+]([O-])c1ccc(Oc2cccc(C(F)(F)F)c2)nc1,,"inconclusive: 79.4 µM [inhibitor, partial curve, poor fit]"
